Measurements: the supplement of paper PMC3334620
In all, about 33,000 sequences were measured (“E-score (-0.5 to 0.5)”: median about -0.013, highest 2% from about 0.3 on). This is one part of the list.

target: T1, Msn1 (UniProt P22148); experiment: PBM E-score (8-mer binding enrichment) (E-score (-0.5 to 0.5)); higher = stronger / more preferred TF binding; most listed sequences are background and not binding sites; conditions: protein concentration: 200 nM; construct: GST-full length
T1 sequence: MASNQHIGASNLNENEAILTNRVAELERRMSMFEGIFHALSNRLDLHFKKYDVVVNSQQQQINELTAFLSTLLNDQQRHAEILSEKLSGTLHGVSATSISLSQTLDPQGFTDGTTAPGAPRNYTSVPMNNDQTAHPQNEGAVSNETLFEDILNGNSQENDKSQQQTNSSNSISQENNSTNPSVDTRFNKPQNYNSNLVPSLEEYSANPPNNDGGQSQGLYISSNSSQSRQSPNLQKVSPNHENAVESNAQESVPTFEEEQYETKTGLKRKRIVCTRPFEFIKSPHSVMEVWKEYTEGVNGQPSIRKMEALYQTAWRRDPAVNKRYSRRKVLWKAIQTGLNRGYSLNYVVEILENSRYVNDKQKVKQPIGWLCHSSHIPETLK
In short: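 Masliner-normalised scans of fluorescent anti-GST signal were the basis for scoring. That signal came from GST-tagged yeast transcription factors applied at about 100-200 nM to double-stranded universal all-10-mer Agilent arrays on fresh or once-stripped slides. Each ungapped eight-base word, pooled with its reverse complement, received an E-score from the Universal PBM Analysis Suite.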

Sequence	PBM E-score
CGTCCGAC	0.0761
GGAACGAC	0.0187
GACGAAGC	-0.00099
CTAATAGA	0.0687
GCCGCGAA	-0.141
ATATAGTA	0.209
CGAAATAG	-0.02
CTCGAAGC	-0.124
ACAAGACC	0.0532
AAGTAGAA	0.0804
ACCAGGAG	-0.0931
TCTGCGCA	0.0234
CTCATAAG	-0.129
AGAGGTAC	-0.0473
CCTATATC	0.0394
AATTCCTC	-0.0412
GTCGTGGA	0.0639
ACTTGAGC	-0.0164
GATTTTAC	0.0875
ACATGAGT	0.0627
TCCGATAA	0.148
AGTGGATA	0.0609
GAGTATGA	0.105
ACTATTGA	0.144
TGCACTAA	0.221

Sequence	PBM E-score
CGGGGGAG	-0.291
AGCACATC	-0.0251
AGATTCGG	0.155
GACGGATA	-0.131
ATCGCTTA	0.0702
GTCGTTAA	0.17
AGCCCCTC	-0.239
CCCAAAAC	0.108
CATTATGA	-0.0894
CACTAGTG	0.276
CCCCTACG	-0.428
CGCACTAC	-0.0329
CCAGCTTC	-0.0377
CAAGGATA	-0.0736
ACCACTTG	0.0211
CACGGTAG	-0.0888
CTGAATAA	0.128
TAATTATA	0.19
GGCGAAGA	-0.261
AGACGGGG	-0.224
CAGTCATG	-0.159
CAATACTA	0.034
AAACGTTG	-0.163
CCCGGGTA	-0.0261
AGCGTATG	-0.049

Sequence	PBM E-score
GACTCCTA	-0.161
AGCATCGC	-0.21
CTTAGAAG	-0.0878
AACGACTT	0.00873
CATTCTAC	0.0124
ACGTCGTG	0.188
GATCTACC	-0.137
CCCCACAG	-0.169
AGCAATAG	-0.148
GTTCCTCA	-0.11
CGGCTTAA	0.03
ACCGTGCG	0.00414
AACATACA	0.146
AGAGGCTA	-0.2
GTAGGCAA	-0.21
AGTTTCCA	-0.0378
ACGTCTTG	0.153
TATCCACA	0.00957
CTATGGAC	0.257
ATTGCTGG	-0.0281
CGTAGCTA	-0.123
GTACCTAA	0.0172
AACTCTGG	0.0649
ACCCGCCC	-0.137
AATAATCC	0.0495

Sequence	PBM E-score
GATTTATA	0.215
CGGGCTGC	-0.113
CTGGCTAC	-0.144
ACAATCCT	0.0491
CACATATG	-0.121
ATGTGTCA	0.217
AACCCTGC	-0.188
AAGGGATA	0.0672
AACCAAGA	0.188
CGACAACC	0.0461
GCAAGCGA	-0.0199
AAAGAGCT	-0.178
AGTTGAAT	0.124
CAGCTCGC	-0.0622
ATGGACTG	-0.00616
CTGAAAGC	0.0584
TCCACCAA	0.13
AATTTCTC	0.0103
CGACTACA	0.00361
AGCTATAG	-0.255
GGGGGTAC	-0.145
AGCAAAGA	0.0493
GAAATTTC	-0.246
AGGACCGC	-0.042
GAGTACTA	0.198

Sequence	PBM E-score
ATGTGCGA	0.0765
CGTGCGCC	0.0449
ATTGGTCC	0.201
CACCAAGA	0.0621
ATGGCGGA	-0.141
GCGGATAC	-0.00158
AGGAGACT	-0.275
AACGTTGG	0.022
CACGCTCA	0.123
AGTGGCAA	-0.0795
ATAAGTCG	0.0746
AACCCTCC	-0.303
CTCCACAA	-0.112
CCGAACGG	0.139
GGGTAGGA	-0.102
CTAAAGGA	0.0586
ATTTTTTG	0.195
GCCCAAAA	-0.0493
GGATATCC	0.12
AGACGACT	0.0368
GAATATCC	-0.00573
CACATTAG	-0.212
ATTGCTAA	0.22
CGGAACTA	0.175
GTAGCTAC	0.0785

Sequence	PBM E-score
AGCAGTAG	-0.194
CCGCCTAG	-0.0541
AATGGTCC	0.138
AGACCAGA	0.059
AAGCGCAA	0.0634
AGGGAGGA	-0.232
ACTGTGGA	-0.0783
GATCCGCC	-0.0635
CGCCTGAC	-0.0177
GTCGAGCA	-0.194
ATTCCCTG	-0.0999
ATCTGCGA	0.0576
CCCGATCG	-0.0816
GAACTGCC	-0.188
ATGGAGTC	0.038
GACCGATA	0.0836
CGGTGGAA	-0.251
AGGGAAAG	-0.175
GAAGATAA	0.0217
AACTTAAG	0.103
CAAGTCAG	-0.0405
ACGCAACT	0.0605
CTTGGATC	-0.00386
CCGGCGTA	-0.0928
CCTTCGAG	-0.0865

Sequence	PBM E-score
GATTTTTA	-0.0562
GATAGCCC	-0.263
AACGTGCA	-0.152
CATCTGGA	-0.103
ACGACTCT	-0.0447
CGATCACC	-0.0331
CTGCGAAA	-0.0565
AGCTGACT	-0.0596
CTGTAGTA	0.194
AGCACTAG	0.0492
CTGATATA	-0.0313
GCAGATAC	-0.049
GTTCATCA	-0.0252
GACTACCA	-0.0815
CCGGGTAA	0.172
GAGGCTGC	-0.185
CGAGCCCC	-0.306
GAAGAATC	-0.0456
CTGTATCA	0.01
ATTGTTGG	0.207
AGTGGGAA	0.0529
CACTCTGA	-0.291
CAGTTCGA	-0.0909
AACCGTGC	-0.166
ACATTCTA	0.201

Sequence	PBM E-score
CCAATAGA	-0.175
CGATACCA	-0.0198
GGGTATAA	0.126
CGGTAGCC	0.0555
CTGACTAA	0.113
AAAGTCTC	0.0411
GCAATTGC	0.0743
TGATTTAA	0.155
CCACGTGA	0.0468
ACAGCGAG	0.0275
CAACAAGC	0.135
ATATAGGC	0.0845
ACCGAAAA	0.112
GGGTGCTA	-0.126
GGGGCTAA	-0.257
AACCTTAA	-0.031
GTCAGCCA	-0.13
ACACTACC	-0.24
AGTGCTAA	-0.0384
TACCTCCA	-0.0136
GCGCGGTA	0.069
AGGGATTG	-0.0776
CCTGTATA	-0.089
ACATTAAA	0.218
CCTATTTC	0.0612

Sequence	PBM E-score
CGTACTCC	-0.00791
GAGACGTA	0.0797
ACCCTATC	-0.0987
TCTGAGCA	0.0528
ATTTGGAG	-0.0358
CGACAGGA	0.196
AAGCTTAG	0.157
ACCGATCG	-0.008
AGTCATAT	0.113
CATGCACA	0.13
GCGCATGA	-0.0716
ATCGCACA	-0.00887
ACCTACGT	-0.139
CAACCCTG	-0.0827
CTACGAAG	-0.235
GGGACTTA	0.23
CAATGTTC	0.133
ATGCTCTG	-0.24
AGCATCCG	-0.0919
